The results in this text go back to article PMC9287920, “Targeting IL-6 by engineered Lactococcus lactis via surface-displayed affibody” (Microbial Cell Factories, 2022).

The target of this test is T1, flag-tagged ZIL fusion protein (Usp45 signal, flag tag, IL-6-binding affibody ZIL, AcmA anchor), displayed on ….
T1 construct: surmised from the DNA; also called ZIL-flag; ZIL-flag-displaying L. lactis; not shown: Usp45 signal peptide, N-terminal, cleaved; AcmA C-terminal domain (acmA3b anchor), C-terminal, kept
Kind of test: flow cytometry on cells; 8 × 10^7 CFU of intact L. lactis incubated overnight at 4 °C with 1 µg/ml biotin-labeled human IL-6 in 500 µL TBS; detected with mouse anti-biotin antibody and Alexa Fluor 488 secondary antibody; geometric MFI. Conditions: one partner purified. (Flow cytometry measures light scatter and fluorescence of single cells or particles in a stream.)

B1: recombinant human biotin-labeled IL-6 (ligand)
chain: not shown
modifications: biotin (site not stated)
notes: interleukin-6, human, recombinant, biotin-labeled (Immunotools); also called biotinylated IL-6; IL-6-biotin; source: bought: Immunotools
With B1, the “fold mean fluorescence intensity over empty plasmid control cells” value turned out to be 80 fold.
